Holding throughout (assay): biochemical
Common to all, as to type: binding

Experiment [1] has as its target T1, UL50_C54S+UL53 (Human cytomegalovirus, UniProt P16794).
T1 construct: GST (N, cleaved yes); 13-residue glycine-serine linker […]; made in house; host or cells: E. coli BL21 (DE3) RIPL
The conditions noted are these: replicates, read-out: normalized FRET signal relative to control without inhibitor; for remaining activity at 1.56 µM: 1.56 μM compound; for remaining activity at 50 µM: 50.00 μM compound; for remaining activity at 25 µM: […] compound.

Experiment [2] has as its target T2, UL50_C35N+UL53 (Human cytomegalovirus, UniProt P16794).
T2 construct: GST (N, cleaved yes); 13-residue glycine-serine linker […]; made in house; host or cells: E. coli BL21 (DE3) RIPL
The conditions noted are these: replicates, read-out: normalized FRET signal relative to control without inhibitor; for remaining activity at 1.56 µM: 1.56 μM compound; for remaining activity at 50 µM: 50.00 μM compound; for remaining activity at 25 µM: […] compound.

Experiment [3] concerns the target T3, UL50_C79S+UL53 (Human cytomegalovirus, UniProt P16794).
T3 construct: GST (N, cleaved yes); 13-residue glycine-serine linker […]; made in house; host or cells: E. coli BL21 (DE3) RIPL
The conditions noted are these: replicates, read-out: normalized FRET signal relative to control without inhibitor; for remaining activity at 1.56 µM: 1.56 μM compound; for remaining activity at 25 µM: […] compound.

With `C=CC(=O)Nc1cccc(Oc2cc(Cl)nc3[nH]ccc23)c1` [GK1], in experiment [1], the remaining activity at 1.56 µM came to 81%, the remaining activity at 50 µM turned out to be 30% and the remaining activity at 25 µM came out at 33%. In experiment [2], the remaining activity at 1.56 µM is 100%, the remaining activity at 50 µM is 37% and the remaining activity at 25 µM was determined as 55%. Also, in experiment [3], the remaining activity at 1.56 µM amounted to 100% and the remaining activity at 25 µM is 63%.

Take `C=CC(=O)Nc1cccc(Oc2ccnc3[nH]ccc23)c1` [GK2]: in experiment [1], the remaining activity at 1.56 µM was 89%, the remaining activity at 50 µM came out at 48% and the remaining activity at 25 µM was 88%. In addition, in experiment [2], the remaining activity at 1.56 µM turned out to be 98%, the remaining activity at 50 µM was 57% and the remaining activity at 25 µM turned out to be 74%. For the same compound, in experiment [3], the remaining activity at 1.56 µM came out at 100% and the remaining activity at 25 µM was determined as 67%.

The values above are taken from article PMC10691697, “A small molecule exerts selective antiviral activity by targeting the human cytomegalovirus nuclear egress complex” (PLOS Pathogens, 2023).
